40 sequences from the supplement of paper PMC10338343 can be followed below.

± gives the standard deviation. This is a selection; strong and weak results do not stand in their true shares.
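Note: 1 nM active piRISC with 0.1 nM target library at 33 °C single turnover.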

For the first assay, the system named is MIWI (PIWIL1) piRISC loaded with L1MC piRNA (30 nt). The experiment in a line: pre-steady-state target cleavage rate (min^-1); MIWI and MILI are mouse PIWI proteins and EfPiwi is from a freshwater sponge; tags in brackets are library labels; higher = faster piRNA-guided slicing of the target. The following applies: guide: L1MC piRNA 5'p-UAACUAAAUACUAUGCAAGCUGUAGGUCCU; auxiliary factor: 500 nM mouse GTSF1. The procedure, abridged:
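A transcribed, DNA-blocked target RNA library […] was incubated at 33 °C for 0–8 or 0–960 min with 1 nM active affinity-purified piRISC carrying one synthetic guide, in HEPES–potassium acetate buffer with or without 500 nM GTSF1 partner protein. Uncleaved targets were then sequenced and normalised to depth and to weakly complementary targets. Data from three trials were pooled, with k3 capped at 0.0001 min^-1, and a burst-and-steady-state fit yielded the pre-steady-state cleavage rate.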
On to UCGACCUUCAGCUUGCAUAGUAUUUACAAA, for which the “pre-steady-state target cleavage rate” value stood at 0.385 ± 0.034.

Consider UCCUGGAUGAGCUUGCAUAGAUUUUAGUUA, for which the “pre-steady-state target cleavage rate” value was 0.00823 ± 0.0035.

As for UCCAGGAACAGCUUGCAUAGUAUUUAGUUA, the “pre-steady-state target cleavage rate” value turned out to be 0.919 ± 0.029.

As to UCCUGGAUGAGCUUGCAUAGUAUAUAGUAA, the “pre-steady-state target cleavage rate” value was found to be 0.233 ± 0.046.

Take UCCUGGAUGAGCUUGCUUAGUAUUUACUUA: the “pre-steady-state target cleavage rate” value is 0.254 ± 0.042.

In the case of UGGAGCUACAGCUUGCAUAGUAUUUACAAA, the “pre-steady-state target cleavage rate” value came out at 0.276 ± 0.036.

As for UCCUGCAACAGCUUGCAUAGUAUAUAGUUA, the “pre-steady-state target cleavage rate” value was 0.844 ± 0.063.

With UCGACCAACAGCUUGCAUAGUAUUUAGAAA, the “pre-steady-state target cleavage rate” value was 0.615 ± 0.045.

Regarding UCCUCCUUCAGCUUGCAUACUAUUUAGUUA, the “pre-steady-state target cleavage rate” value turned out to be 0.329 ± 0.024.

Regarding UGGACCUACAGCUAGCAUAGUAUUUACUUA, the “pre-steady-state target cleavage rate” value was found to be 0.488 ± 0.036.

For the sequence UCCUCCUACAGCUUGCAUAGUAUUGAGUUA, the “pre-steady-state target cleavage rate” value is 0.343 ± 0.031.

For the sequence UCGACCUUCAGCUUGGAUAGUAUUUAGUUA, the “pre-steady-state target cleavage rate” value was found to be 1.49 ± 0.05.

Regarding UCGACGUACAGCUUGCAUAGUAUUUACUUA, the “pre-steady-state target cleavage rate” value came to 0.217 ± 0.021.

On to UCCACCUACAGCUUGCAUUGUAAUUAGUUA, for which the “pre-steady-state target cleavage rate” value amounted to 0.372 ± 0.023.

As for UCCUGGAUGGGCUUGCAUAGUAUUUAGUUA, the “pre-steady-state target cleavage rate” value was 0.71 ± 0.037.

On to UCCUGGAUGUGCUUGCUUAGUUUUUAGUUA, for which the “pre-steady-state target cleavage rate” value came out at 0.00783 ± 0.0044.

Turning to AGGACCUAGAGCUUGCAUAGUAAUUAGUUA, the “pre-steady-state target cleavage rate” value came out at 0.747 ± 0.047.

For the sequence UCCUGGAUCAGCUUGCAUAGUAUUUAGUGUA, the “pre-steady-state target cleavage rate” value came to 0.79 ± 0.047.

Take UCCUGCUACACCUUGCAUAGAAUUUAGUUA: the “pre-steady-state target cleavage rate” value came out at 0.429 ± 0.13.

As for AGGACCUACAGCUUGCAUAGUCAUUUAGUUA, the “pre-steady-state target cleavage rate” value was found to be 0.138 ± 0.037.

On to UGGACCUACAGCUUGCAUACUAUUAAGUUA, for which the “pre-steady-state target cleavage rate” value came to 0.13 ± 0.012.

Regarding UGGACCAAGAGCUUGCAUAGUAUUUAGUUA, the “pre-steady-state target cleavage rate” value stood at 1.08 ± 0.065.

As to UCCACCUUCAGCUUCCAUAGUAUUUAGUUA, the “pre-steady-state target cleavage rate” value was determined as 0.0557 ± 0.017.

For the sequence AGGACCUACAGCUUGUCAUAGUAUUUAGUUA, the “pre-steady-state target cleavage rate” value worked out at 0.747 ± 0.074.

Regarding UCCUGCUAUAGCUUGCAUAGUAUUUAGUUA, the “pre-steady-state target cleavage rate” value was 0.631 ± 0.035.

Take UCCUCCUACAGCUUGCAUAGUAUUAUAGUUA: the “pre-steady-state target cleavage rate” value was found to be 0.785 ± 0.033.

Regarding AGGACCUACAGCUUGCUUAGUAAUUAGUUA, the “pre-steady-state target cleavage rate” value is 0.8 ± 0.058.

Turning to UCCUCCUAGUGCUUGCAUAGUAUUUAGUAA, the “pre-steady-state target cleavage rate” value was 0.221 ± 0.037.

Turning to AGGACCUAGAGGUUGCAUAGUAUUUAGUUA, the “pre-steady-state target cleavage rate” value is 0.546 ± 0.092.

Regarding UCCUGCUUCAGCUUGCAUAGUAUUAAGUUA, the “pre-steady-state target cleavage rate” value turned out to be 0.343 ± 0.035.

On to UCCUGGAUCAGCUAGCUUAGUAUUUAGUUA, for which the “pre-steady-state target cleavage rate” value came to 0.372 ± 0.033.

UCCACCUACAGCUUGCAUAGUAUUUAGAUUA: the “pre-steady-state target cleavage rate” value came to 0.312 ± 0.039.

Regarding UCCACCUACAGCUAGCAUUGUAUUUAGUUA, the “pre-steady-state target cleavage rate” value worked out at 0.707 ± 0.027.

Consider UCCUGGAUCAGCUUGGAUAGUAUAUAGUUA, for which the “pre-steady-state target cleavage rate” value was found to be 0.216 ± 0.026.

In the case of AGGACCUACAGGUUGCAUAGUAAUUAGUUA, the “pre-steady-state target cleavage rate” value was determined as 0.773 ± 0.067.

As for UCCUGCUACAGCUUGCAUAGUAAUUUGUUA, the “pre-steady-state target cleavage rate” value worked out at 0.446 ± 0.049.

On to UCCUGGAACAGCUUGCUUAGUAUUUAGAAA, for which the “pre-steady-state target cleavage rate” value came out at 0.434 ± 0.073.

UCCUGGAACAGCUUGGAUAGUAUUUACUUA: the “pre-steady-state target cleavage rate” value was determined as 0.0518 ± 0.0087.

As for AGGACCUACAGCUUGCAUAGUAUUUAGGUA, the “pre-steady-state target cleavage rate” value was found to be 0.386 ± 0.059.

In the case of UCCACCUACAGCAAGCAUAGUAUUUAGUUA, the “pre-steady-state target cleavage rate” value is 1.02 ± 0.048.

Staying with this assay, now noted: guide: L1MC piRNA 5'p-UAACUAAAUACUAUGCAAGCUGUAGGUCCU; auxiliary factor: none (no GTSF1).
For UCGACCUUCAGCUUGCAUAGUAUUUACAAA, the “pre-steady-state target cleavage rate” value was 0.00444 ± 0.0026.

As for UCCUGGAUGAGCUUGCAUAGAUUUUAGUUA, the “pre-steady-state target cleavage rate” value was 0.00284 ± 0.0027.

In the case of UCCAGGAACAGCUUGCAUAGUAUUUAGUUA, the “pre-steady-state target cleavage rate” value was determined as 0.07 ± 0.013.

As to UCCUGGAUGAGCUUGCAUAGUAUAUAGUAA, the “pre-steady-state target cleavage rate” value was found to be 0.00793 ± 0.0037.

Consider UCCUGGAUGAGCUUGCUUAGUAUUUACUUA, for which the “pre-steady-state target cleavage rate” value amounted to 0.0202 ± 0.005.

In the case of UGGAGCUACAGCUUGCAUAGUAUUUACAAA, the “pre-steady-state target cleavage rate” value worked out at 0.00812 ± 0.0027.

Regarding UCCUGCAACAGCUUGCAUAGUAUAUAGUUA, the “pre-steady-state target cleavage rate” value was 0.0237 ± 0.0057.

Turning to UCGACCAACAGCUUGCAUAGUAUUUAGAAA, the “pre-steady-state target cleavage rate” value is 0.0115 ± 0.0038.

For the sequence UCCUCCUUCAGCUUGCAUACUAUUUAGUUA, the “pre-steady-state target cleavage rate” value came to 0.031 ± 0.0064.

Regarding UGGACCUACAGCUAGCAUAGUAUUUACUUA, the “pre-steady-state target cleavage rate” value turned out to be 0.0406 ± 0.0082.

On to UCCUCCUACAGCUUGCAUAGUAUUGAGUUA, for which the “pre-steady-state target cleavage rate” value stood at 0.0282 ± 0.0039.

Take UCGACCUUCAGCUUGGAUAGUAUUUAGUUA: the “pre-steady-state target cleavage rate” value is 0.0525 ± 0.0074.

In the case of UCGACGUACAGCUUGCAUAGUAUUUACUUA, the “pre-steady-state target cleavage rate” value was found to be 0.0278 ± 0.0047.

Turning to UCCACCUACAGCUUGCAUUGUAAUUAGUUA, the “pre-steady-state target cleavage rate” value turned out to be 0.00906 ± 0.0022.

On to UCCUGGAUGGGCUUGCAUAGUAUUUAGUUA, for which the “pre-steady-state target cleavage rate” value was 0.0651 ± 0.015.

As to UCCUGGAUGUGCUUGCUUAGUUUUUAGUUA, the “pre-steady-state target cleavage rate” value amounted to 0.005 ± 0.0029.

Regarding AGGACCUAGAGCUUGCAUAGUAAUUAGUUA, the “pre-steady-state target cleavage rate” value was found to be 0.0277 ± 0.0076.

On to UCCUGGAUCAGCUUGCAUAGUAUUUAGUGUA, for which the “pre-steady-state target cleavage rate” value was 0.033 ± 0.007.

Consider UCCUGCUACACCUUGCAUAGAAUUUAGUUA, for which the “pre-steady-state target cleavage rate” value came out at 0.00545 ± 0.0031.

Take AGGACCUACAGCUUGCAUAGUCAUUUAGUUA: the “pre-steady-state target cleavage rate” value is 0.00487 ± 0.0028.

For the sequence UGGACCUACAGCUUGCAUACUAUUAAGUUA, the “pre-steady-state target cleavage rate” value was determined as 0.0113 ± 0.0029.

Take UGGACCAAGAGCUUGCAUAGUAUUUAGUUA: the “pre-steady-state target cleavage rate” value amounted to 0.0427 ± 0.0075.

Take UCCACCUUCAGCUUCCAUAGUAUUUAGUUA: the “pre-steady-state target cleavage rate” value was found to be 0.00309 ± 0.0018.

Turning to AGGACCUACAGCUUGUCAUAGUAUUUAGUUA, the “pre-steady-state target cleavage rate” value is 0.00894 ± 0.0041.

UCCUGCUAUAGCUUGCAUAGUAUUUAGUUA: the “pre-steady-state target cleavage rate” value turned out to be 0.0386 ± 0.007.

In the case of UCCUCCUACAGCUUGCAUAGUAUUAUAGUUA, the “pre-steady-state target cleavage rate” value amounted to 0.0148 ± 0.0032.

Take AGGACCUACAGCUUGCUUAGUAAUUAGUUA: the “pre-steady-state target cleavage rate” value was determined as 0.0154 ± 0.0047.

For the sequence UCCUCCUAGUGCUUGCAUAGUAUUUAGUAA, the “pre-steady-state target cleavage rate” value turned out to be 0.0113 ± 0.0017.

As for AGGACCUAGAGGUUGCAUAGUAUUUAGUUA, the “pre-steady-state target cleavage rate” value was 0.0249 ± 0.0039.

With UCCUGCUUCAGCUUGCAUAGUAUUAAGUUA, the “pre-steady-state target cleavage rate” value came out at 0.0139 ± 0.0034.

For the sequence UCCUGGAUCAGCUAGCUUAGUAUUUAGUUA, the “pre-steady-state target cleavage rate” value amounted to 0.00674 ± 0.003.

On to UCCACCUACAGCUUGCAUAGUAUUUAGAUUA, for which the “pre-steady-state target cleavage rate” value came to 0.0172 ± 0.0039.

For the sequence UCCACCUACAGCUAGCAUUGUAUUUAGUUA, the “pre-steady-state target cleavage rate” value came to 0.00698 ± 0.0024.

For UCCUGGAUCAGCUUGGAUAGUAUAUAGUUA, the “pre-steady-state target cleavage rate” value is 0.0214 ± 0.0062.

For AGGACCUACAGGUUGCAUAGUAAUUAGUUA, the “pre-steady-state target cleavage rate” value is 0.0209 ± 0.0048.

Take UCCUGCUACAGCUUGCAUAGUAAUUUGUUA: the “pre-steady-state target cleavage rate” value was determined as 0.0138 ± 0.0047.

UCCUGGAACAGCUUGCUUAGUAUUUAGAAA: the “pre-steady-state target cleavage rate” value stood at 0.00637 ± 0.0032.

Regarding UCCUGGAACAGCUUGGAUAGUAUUUACUUA, the “pre-steady-state target cleavage rate” value amounted to 0.0182 ± 0.0036.

Take AGGACCUACAGCUUGCAUAGUAUUUAGGUA: the “pre-steady-state target cleavage rate” value stood at 0.0201 ± 0.007.

For UCCACCUACAGCAAGCAUAGUAUUUAGUUA, the “pre-steady-state target cleavage rate” value turned out to be 0.00449 ± 0.002.
